# Experimental data reported in article PMC11943272.
# By UniProt entry, the sequences of proteins in these tests, tags left out.
# UniProt P53173: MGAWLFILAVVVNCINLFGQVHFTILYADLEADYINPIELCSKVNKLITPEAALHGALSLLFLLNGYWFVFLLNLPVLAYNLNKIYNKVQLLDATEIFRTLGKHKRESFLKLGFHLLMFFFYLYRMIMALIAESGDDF
# Results are given in words; binding and its absence hold for the method and conditions named. Binding seen in cells or lysates may run through a third protein. Some results given as binding are weak or reduced against the parent protein; the word gives no strength. For some assays here: Where a sequence is shown, tags or fusion partners need not be part of it.
# T1: Anp1-VN (S. cerevisiae) (UniProt P32629)
# T1 sequence: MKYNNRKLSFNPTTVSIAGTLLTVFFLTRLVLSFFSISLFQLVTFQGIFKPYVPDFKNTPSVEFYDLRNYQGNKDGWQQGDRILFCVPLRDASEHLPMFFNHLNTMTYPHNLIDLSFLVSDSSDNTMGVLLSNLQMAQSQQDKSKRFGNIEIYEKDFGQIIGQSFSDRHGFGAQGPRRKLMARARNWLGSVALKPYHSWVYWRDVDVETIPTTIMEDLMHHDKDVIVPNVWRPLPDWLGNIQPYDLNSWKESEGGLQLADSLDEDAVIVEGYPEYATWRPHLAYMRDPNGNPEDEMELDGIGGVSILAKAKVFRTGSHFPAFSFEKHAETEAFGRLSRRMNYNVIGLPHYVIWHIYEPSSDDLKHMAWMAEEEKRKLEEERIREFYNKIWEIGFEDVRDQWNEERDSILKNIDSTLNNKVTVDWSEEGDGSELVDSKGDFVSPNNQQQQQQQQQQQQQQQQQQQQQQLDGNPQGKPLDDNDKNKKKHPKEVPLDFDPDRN
# T2: Sec28-VN (S. cerevisiae) (UniProt P40509)
# T2 sequence: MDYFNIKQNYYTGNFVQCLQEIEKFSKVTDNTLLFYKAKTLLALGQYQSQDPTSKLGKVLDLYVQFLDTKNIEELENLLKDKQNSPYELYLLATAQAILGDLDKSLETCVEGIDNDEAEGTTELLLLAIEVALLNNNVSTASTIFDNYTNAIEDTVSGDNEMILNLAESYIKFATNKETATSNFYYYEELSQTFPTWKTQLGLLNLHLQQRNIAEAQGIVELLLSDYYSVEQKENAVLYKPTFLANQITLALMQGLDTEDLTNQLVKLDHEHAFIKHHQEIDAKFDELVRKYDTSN
# T3: Chs7-13xMyc (S. cerevisiae) (UniProt P38843)
# T3 sequence: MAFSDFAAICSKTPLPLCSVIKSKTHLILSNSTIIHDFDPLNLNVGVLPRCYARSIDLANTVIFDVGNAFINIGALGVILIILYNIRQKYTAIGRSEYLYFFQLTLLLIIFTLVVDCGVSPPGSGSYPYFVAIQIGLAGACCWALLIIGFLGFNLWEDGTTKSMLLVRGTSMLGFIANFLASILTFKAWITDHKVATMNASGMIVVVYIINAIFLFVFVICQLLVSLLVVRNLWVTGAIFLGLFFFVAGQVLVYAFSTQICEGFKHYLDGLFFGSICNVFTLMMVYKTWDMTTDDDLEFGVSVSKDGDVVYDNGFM
# Key:
# [1] = biological target: Erv14-mCi (S. cerevisiae) (UniProt P53173); test: co-IP; Erv14-mCi precipitated with rabbit anti-GFP and Protein A Sepharose from yeast lysates (CHS7 strain; for wild-type Chs3 also the chs7∆ mutant); 50 mM Tris-HCl pH 8.0, 0.1% Triton, 150 mM NaCl, 4 °C; blots with anti-GFP and anti-HA
# [2] = biological target: Chs3-3xHA (S. cerevisiae) (UniProt P29465); test: cross-linking; DSP added to cleared yeast lysate (10 μg total protein, PBS pH 7.4, 30 min, 22 °C) of the chs7∆ mutant; non-reducing SDS-PAGE, anti-HA blot; DTT reverts the cross-link
# [3] = biological target: Erv14-mCi (S. cerevisiae) (UniProt P53173); test: co-IP; as a1, lysate of the chs7∆ mutant (no Chs7): Erv14-mCi precipitated with anti-GFP, blot with anti-HA
# [4] = biological target: ^∆126Chs3-3xHA (S. cerevisiae) (UniProt P29465); test: cross-linking; DSP added to cleared yeast lysate (10 μg total protein, PBS pH 7.4, 30 min, 22 °C) of the chs7∆ mutant; non-reducing SDS-PAGE, anti-HA blot; DTT reverts the cross-link
# Anp1-VN (S. cerevisiae) = biological target: T1, Anp1-VN (S. cerevisiae); test: split reporter; BiFC with VN and VC fragments of VENUS in living yeast cells, seen in the YFP channel
# Sec28-VN (S. cerevisiae) = biological target: T2, Sec28-VN (S. cerevisiae); test: as above
# [5] = biological target: T3, Chs7-13xMyc (S. cerevisiae); test: co-IP; Chs7-13xMyc precipitated with anti-Myc 9E10 and Protein A Sepharose from yeast lysates with or without Chs3; 50 mM Tris-HCl pH 8.0, 0.1% Triton, 150 mM NaCl, 4 °C; blots with anti-myc and anti-GFP
binder,measurement,setting,value
"Chs3-3xHA (protein, UniProt P29465 1-1165) MTGLNGDDPDDYYLNLNQDEESLLRSRHSVGSGAPHRQGSLVRPERSRLNNPDNPHFYYAQKTQEQMNHLDVLPSSTGVNPNATRRSGSLRSKGSVRSKFSGRETDSYLLQDMNTTDKKASVKISDEGVAEDEFDKDGDVDNFEESSTQPINKSIKPLRKETNDTLSFWQMYCYFITFWAPAPILAFCGMPKKERQMAWREKVALISVILYIGAIVAFLTFGFTKTVCSSSKLRLKNNEVSTEFVVINGKAYELDTSSRSGIQDVEVDSDTLYGPWSDAGKDASFLFQNVNGNCHNLITPKSNSSIPHDDDNNLAWYFPCKLKNQDGSSKPNFTVENYAGWNCHTSKEDRDAFYGLKSKADVYFTWDGIKNSSRNLIVYNGDVLDLDLLDWLEKDDVDYPVVFDDLKTSNLQGYDLSLVLSNGHERKIARCLSEIIKVGEVDSKTVGCIASDVVLYVSLVFILSVVIIKFIIACYFRWTVARKQGAYIVDNKTMDKHTNDIEDWSNNIQTKAPLKEVDPHLRPKKYSKKSLGHKRASTFDLLKKHSSKMFQFNESVIDLDTSMSSSLQSSGSYRGMTTMTTQNAWKLSNENKAVHSRNPSTLLPTSSMFWNKATSSPVPGSSLIQSLDSTIIHPDIVQQPPLDFMPYGFPLIHTICFVTCYSEDEEGLRTTLDSLSTTDYPNSHKLLMVVCDGLIKGSGNDKTTPEIALGMMDDFVTPPDEVKPYSYVAVASGSKRHNMAKIYAGFYKYDDSTIPPENQQRVPIITIVKCGTPAEQGAAKPGNRGKRDSQIILMSFLEKITFDERMTQLEFQLLKNIWQITGLMADFYETVLMVDADTKVFPDALTHMVAEMVKDPLIMGLCGETKIANKAQSWVTAIQVFEYYISHHQAKAFESVFGSVTCLPGCFSMYRIKSPKGSDGYWVPVLANPDIVERYSDNVTNTLHKKNLLLLGEDRFLSSLMLKTFPKRKQVFVPKAACKTIAPDKFKVLLSQRRRWINSTVHNLFELVLIRDLCGTFCFSMQFVIGIELIGTMVLPLAICFTIYVIIFAIVSKPTPVITLVLLAIILGLPGLIVVITATRWSYLWWMCVYICALPIWNFVLPSYAYWKFDDFSWGDTRTIAGGNKKAQDENEGEFDHSKIKMRTWREFEREDILNRKEESDSFVA",binding,[1],binds
same,binding,[2],binds
"^∆126Chs3-3xHA (domain or fragment, UniProt P29465 127-1165) EGVAEDEFDKDGDVDNFEESSTQPINKSIKPLRKETNDTLSFWQMYCYFITFWAPAPILAFCGMPKKERQMAWREKVALISVILYIGAIVAFLTFGFTKTVCSSSKLRLKNNEVSTEFVVINGKAYELDTSSRSGIQDVEVDSDTLYGPWSDAGKDASFLFQNVNGNCHNLITPKSNSSIPHDDDNNLAWYFPCKLKNQDGSSKPNFTVENYAGWNCHTSKEDRDAFYGLKSKADVYFTWDGIKNSSRNLIVYNGDVLDLDLLDWLEKDDVDYPVVFDDLKTSNLQGYDLSLVLSNGHERKIARCLSEIIKVGEVDSKTVGCIASDVVLYVSLVFILSVVIIKFIIACYFRWTVARKQGAYIVDNKTMDKHTNDIEDWSNNIQTKAPLKEVDPHLRPKKYSKKSLGHKRASTFDLLKKHSSKMFQFNESVIDLDTSMSSSLQSSGSYRGMTTMTTQNAWKLSNENKAVHSRNPSTLLPTSSMFWNKATSSPVPGSSLIQSLDSTIIHPDIVQQPPLDFMPYGFPLIHTICFVTCYSEDEEGLRTTLDSLSTTDYPNSHKLLMVVCDGLIKGSGNDKTTPEIALGMMDDFVTPPDEVKPYSYVAVASGSKRHNMAKIYAGFYKYDDSTIPPENQQRVPIITIVKCGTPAEQGAAKPGNRGKRDSQIILMSFLEKITFDERMTQLEFQLLKNIWQITGLMADFYETVLMVDADTKVFPDALTHMVAEMVKDPLIMGLCGETKIANKAQSWVTAIQVFEYYISHHQAKAFESVFGSVTCLPGCFSMYRIKSPKGSDGYWVPVLANPDIVERYSDNVTNTLHKKNLLLLGEDRFLSSLMLKTFPKRKQVFVPKAACKTIAPDKFKVLLSQRRRWINSTVHNLFELVLIRDLCGTFCFSMQFVIGIELIGTMVLPLAICFTIYVIIFAIVSKPTPVITLVLLAIILGLPGLIVVITATRWSYLWWMCVYICALPIWNFVLPSYAYWKFDDFSWGDTRTIAGGNKKAQDENEGEFDHSKIKMRTWREFEREDILNRKEESDSFVA",binding,[3],binds weakly
same,binding,[1],binds
same,binding,[4],no binding
"Chs7-VC (protein, UniProt P38843 1-316) MAFSDFAAICSKTPLPLCSVIKSKTHLILSNSTIIHDFDPLNLNVGVLPRCYARSIDLANTVIFDVGNAFINIGALGVILIILYNIRQKYTAIGRSEYLYFFQLTLLLIIFTLVVDCGVSPPGSGSYPYFVAIQIGLAGACCWALLIIGFLGFNLWEDGTTKSMLLVRGTSMLGFIANFLASILTFKAWITDHKVATMNASGMIVVVYIINAIFLFVFVICQLLVSLLVVRNLWVTGAIFLGLFFFVAGQVLVYAFSTQICEGFKHYLDGLFFGSICNVFTLMMVYKTWDMTTDDDLEFGVSVSKDGDVVYDNGFM",binding,Anp1-VN (S. cerevisiae),no binding
same,binding,Sec28-VN (S. cerevisiae),binds
"Gga2-GFP (protein, UniProt P38817 1-585) MSHPHSHSIYLSELPVRKPQALGNPLLRKIQRACRMSLAEPDLALNLDIADYINEKQGAAPRDAAIALAKLINNRESHVAIFALSLLDVLVKNCGYPFHLQISRKEFLNELVKRFPGHPPLRYSKIQRLILTAIEEWYQTICKHSSYKNDMGYIRDMHRLLKYKGYAFPKISESDLAVLKPSNQLKTASEIQKEQEIAQAAKLEELIRRGKPEDLREANKLMKIMAGFKEDNAVQAKQAISSELNKLKRKADLLNEMLESPDSQNWDNETTQELHSALKVAQPKFQKIIEEEQEDDALVQDLLKFNDTVNQLLEKFNLLKNGDSNAASQIHPSHVSAPLQQSSGALTNEINLIDFNDLDEAPSQGNNNTNGTGTPAAAETSVNDLLGDLTDLSISNPSTANQASFGLGGDIVLGSSQPAPPVTTTNNSNNTLDLLGLSTPQSPTNSQAVNSSGFDLLMGFNPTTGTTTAPARTLVNQSPNLKIEFEISRESNSVIRIKSFFTNLSSSPISNLVFLLAVPKSMSLKLQPQSSNFMIGNAKDGISQEGTIENAPANPSKALKVKWKVNYSVNSTQAEETAVFTLPNV",binding,[5],binds
